Sequences and labels used below:
B1: HR, O43593 (protein)
chain: MESTPSFLKGTPTWEKTAPENGIVRQEPGSPPRDGLHHGPLCLGEPAPFWRGVLSTPDSWLPPGFPQGPKDMLPLVEGEGPQNGERKVNWLGSKEGLRWKEAMLTHPLAFCGPACPPRCGPLMPEHSGGHLKSDPVAFRPWHCPFLLETKILERAPFWVPTCLPPYLVSGLPPEHPCDWPLTPHPWVYSGGQPKVPSAFSLGSKGFYYKDPSIPRLAKEPLAAAEPGLFGLNSGGHLQRAGEAERPSLHQRDGEMGAGRQQNPCPLFLGQPDTVPWTSWPACPPGLVHTLGNVWAGPGDGNLGYQLGPPATPRCPSPEPPVTQRGCCSSYPPTKGGGLGPCGKCQEGLEGGASGASEPSEEVNKASGPRACPPSHHTKLKKTWLTRHSEQFECPRGCPEVEERPVARLRALKRAGSPEVQGAMGSPAPKRPPDPFPGTAEQGAGGWQEVRDTSIGNKDVDSGQHDEQKGPQDGQASLQDPGLQDIPCLALPAKLAQCQSCAQAAGEGGGHACHSQQVRRSPLGGELQQEEDTATNSSSEEGPGSGPDSRLSTGLAKHLLSGLGDRLCRLLRREREALAWAQREGQGPAVTEDSPGIPRCCSRCHHGLFNTHWRCPRCSHRLCVACGRVAGTGRAREKAGFQEQSAEECTQEAGHAACSLMLTQFVSSQALAELSTAMHQVWVKFDIRGHCPCQADARVWAPGDAGQQKESTQKTPPTPQPSCNGDTHRTKSIKEETPDSAETPAEDRAGRGPLPCPSLCELLASTAVKLCLGHERIHMAFAPVTPALPSDDRITNILDSIIAQVVERKIQEKALGPGLRAGPGLRKGLGLPLSPVRPRLPPPGALLWLQEPQPCPRRGFHLFQEHWRQGQPVLVSGIQRTLQGNLWGTEALGALGGQVQALSPLGPPQPSSLGSTTFWEGFSWPELRPKSDEGSVLLLHRALGDEDTSRVENLAASLPLPEYCALHGKLNLASYLPPGLALRPLEPQLWAAYGVSPHRGHLGTKNLCVEVADLVSILVHADTPLPAWHRAQKDFLSGLDGEGLWSPGSQVSTVWHVFRAQDAQRIRRFLQMVCPAGAGALEPGAPGSCYLDAGLRRRLREEWGVSCWTLLQAPGEAVLVPAGAPHQVQGLVSTVSVTQHFLSPETSALSAQLCHQGPSLPPDCHLLYAQMDWAVFQAVKVAVGTLQEAK
B2: SMAD5, Q99717 (protein)
chain: MTSMASLFSFTSPAVKRLLGWKQGDEEEKWAEKAVDALVKKLKKKKGAMEELEKALSSPGQPSKCVTIPRSLDGRLQVSHRKGLPHVIYCRVWRWPDLQSHHELKPLDICEFPFGSKQKEVCINPYHYKRVESPVLPPVLVPRHNEFNPQHSLLVQFRNLSHNEPHMPQNATFPDSFHQPNNTPFPLSPNSPYPPSPASSTYPNSPASSGPGSPFQLPADTPPPAYMPPDDQMGQDNSQPMDTSNNMIPQIMPSISSRDVQPVAYEEPKHWCSIVYYELNNRVGEAFHASSTSVLVDGFTDPSNNKSRFCLGLLSNVNRNSTIENTRRHIGKGVHLYYVGGEVYAECLSDSSIFVQSRNCNFHHGFHPTTVCKIPSSCSLKIFNNQEFAQLLAQSVNHGFEAVYELTKMCTIRMSFVKGWGAEYHRQDVTSTPCWIEIHLHGPLQWLDKVLTQMGSPLNPISSVS
B3: RFX1, P22670 (protein)
chain: MATQAYTELQAAPPPSQPPQAPPQAQPQPPPPPPPAAPQPPQPPTAAATPQPQYVTELQSPQPQAQPPGGQKQYVTELPAVPAPSQPTGAPTPSPAPQQYIVVTVSEGAMRASETVSEASPGSTASQTGVPTQVVQQVQGTQQRLLVQTSVQAKPGHVSPLQLTNIQVPQQALPTQRLVVQSAAPGSKGGQVSLTVHGTQQVHSPPEQSPVQANSSSSKTAGAPTGTVPQQLQVHGVQQSVPVTQERSVVQATPQAPKPGPVQPLTVQGLQPVHVAQEVQQLQQVPVPHVYSSQVQYVEGGDASYTASAIRSSTYSYPETPLYTQTASTSYYEAAGTATQVSTPATSQAVASSGSMPMYVSGSQVVASSTSTGAGASNSSGGGGSGGGGGGGGGGGGGGSGSTGGGGSGAGTYVIQGGYMLGSASQSYSHTTRASPATVQWLLDNYETAEGVSLPRSTLYCHYLLHCQEQKLEPVNAASFGKLIRSVFMGLRTRRLGTRGNSKYHYYGLRIKASSPLLRLMEDQQHMAMRGQPFSQKQRLKPIQKMEGMTNGVAVGQQPSTGLSDISAQVQQYQQFLDASRSLPDFTELDLQGKVLPEGVGPGDIKAFQVLYREHCEAIVDVMVNLQFTLVETLWKTFWRYNLSQPSEAPPLAVHDEAEKRLPKAILVLLSKFEPVLQWTKHCDNVLYQGLVEILIPDVLRPIPSALTQAIRNFAKSLESWLTHAMVNIPEEMLRVKVAAAGAFAQTLRRYTSLNHLAQAARAVLQNTAQINQMLSDLNRVDFANVQEQASWVCRCEDRVVQRLEQDFKVTLQQQNSLEQWAAWLDGVVSQVLKPYQGSAGFPKAAKLFLLKWSFYSSMVIRDLTLRSAASFGSFHLIRLLYDEYMYYLIEHRVAQAKGETPIAVMGEFANLATSLNPLDPDKDEEEEEEEESEDELPQDISLAAGGESPALGPETLEPPAKLARTDARGLFVQALPSS
B4: PTGIS, Q16647 (protein)
chain: MAWAALLGLLAALLLLLLLSRRRTRRPGEPPLDLGSIPWLGYALDFGKDAASFLTRMKEKHGDIFTILVGGRYVTVLLDPHSYDAVVWEPRTRLDFHAYAIFLMERIFDVQLPHYSPSDEKARMKLTLLHRELQALTEAMYTNLHAVLLGDATEAGSGWHEMGLLDFSYSFLLRAGYLTLYGIEALPRTHESQAQDRVHSADVFHTFRQLDRLLPKLARGSLSVGDKDHMCSVKSRLWKLLSPARLARRAHRSKWLESYLLHLEEMGVSEEMQARALVLQLWATQGNMGPAAFWLLLFLLKNPEALAAVRGELESILWQAEQPVSQTTTLPQKVLDSTPVLDSVLSESLRLTAAPFITREVVVDLAMPMADGREFNLRRGDRLLLFPFLSPQRDPEIYTDPEVFKYNRFLNPDGSEKKDFYKDGKRLKNYNMPWGAGHNHCLGRSYAVNSIKQFVFLVLVHLDLELINADVEIPEFDLSRYGFGLMQPEHDVPVRYRIRP
B5: STAG2, Q8N3U4 (protein)
chain: MIAAPEIPTDFNLLQESETHFSSDTDFEDIEGKNQKQGKGKTCKKGKKGPAEKGKGGNGGGKPPSGPNRMNGHHQQNGVENMMLFEVVKMGKSAMQSVVDDWIESYKHDRDIALLDLINFFIQCSGCKGVVTAEMFRHMQNSEIIRKMTEEFDEDSGDYPLTMAGPQWKKFKSSFCEFIGVLVRQCQYSIIYDEYMMDTVISLLTGLSDSQVRAFRHTSTLAAMKLMTALVNVALNLSINMDNTQRQYEAERNKMIGKRANERLELLLQKRKELQENQDEIENMMNAIFKGVFVHRYRDAIAEIRAICIEEIGIWMKMYSDAFLNDSYLKYVGWTMHDKQGEVRLKCLTALQGLYYNKELNSKLELFTSRFKDRIVSMTLDKEYDVAVQAIKLLTLVLQSSEEVLTAEDCENVYHLVYSAHRPVAVAAGEFLYKKLFSRRDPEEDGMMKRRGRQGPNANLVKTLVFFFLESELHEHAAYLVDSMWDCATELLKDWECMNSLLLEEPLSGEEALTDRQESALIEIMLCTIRQAAECHPPVGRGTGKRVLTAKEKKTQLDDRTKITELFAVALPQLLAKYSVDAEKVTNLLQLPQYFDLEIYTTGRLEKHLDALLRQIRNIVEKHTDTDVLEACSKTYHALCNEEFTIFNRVDISRSQLIDELADKFNRLLEDFLQEGEEPDEDDAYQVLSTLKRITAFHNAHDLSKWDLFACNYKLLKTGIENGDMPEQIVIHALQCTHYVILWQLAKITESSSTKEDLLRLKKQMRVFCQICQHYLTNVNTTVKEQAFTILCDILMIFSHQIMSGGRDMLEPLVYTPDSSLQSELLSFILDHVFIEQDDDNNSADGQQEDEASKIEALHKRRNLLAAFCKLIVYTVVEMNTAADIFKQYMKYYNDYGDIIKETMSKTRQIDKIQCAKTLILSLQQLFNEMIQENGYNFDRSSSTFSGIKELARRFALTFGLDQLKTREAIAMLHKDGIEFAFKEPNPQGESHPPLNLAFLDILSEFSSKLLRQDKRTVYVYLEKFMTFQMSLRREDVWLPLMSYRNSLLAGGDDDTMSVISGISSRGSTVRSKKSKPSTGKRKVVEGMQLSLTEESSSSDSMWLSREQTLHTPVMMQTPQLTSTIMREPKRLRPEDSFMSVYPMQTEHHQTPLDYNRRGTSLMEDDEEPIVEDVMMSSEGRIEDLNEGMDFDTMDIDLPPSKNRRERTELKPDFFDPASIMDESVLGVSMF

The list shows a part of the results. Binding of human transcription factors and regulators to the viral nucleoprotein by AlphaScreen, crude cell-free proteins, amounts not normalised, one pass. Fold of the Venus control; higher = more signal. No active / inactive call. Single-pass screen; sequences are the whole Swiss-Prot entries looked up by name.

These results are taken from the supplement of paper PMC12423691.

The test deals with nucleoprotein N of Crimean-Congo hemorrhagic fever virus. Put plainly: AlphaScreen luminescence signal relative to Venus negative control (fold); higher = stronger binding to CCHFV N. As to the method: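 AlphaScreen binding of cell-free made, FLAG-GST-tagged human transcription factors and regulators (crude translation products) to biotinylated N protein; signal as fold of the FLAG-GST-Venus control. One pass.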
Take B1: the AlphaScreen luminescence signal was found to be 2.05.

As to B2, the AlphaScreen luminescence signal was found to be 1.26.

B3 showed an AlphaScreen luminescence signal of 1.95.

On to B4, for which the AlphaScreen luminescence signal was 2.05.

B5: the AlphaScreen luminescence signal came to 4.19.
